# The supplement of paper PMC8728848
# The list shows a part of the results.
# What was measured:
# Experiment in all cases: glycan array binding signal (z-score within array); higher = stronger binding
# Conditions in all cases: glycan notation: IUPAC condensed, linker removed
# [1] = biological target: Gal(b1-4)GlcNAc(b1-3)Gal(b1-4)GlcNAc(b1-3)Gal(b1-4)GlcNAc(b1-3)Gal(b1-4)GlcNAc(b1-3)Gal(b1-4)GlcNAc(b1-2)Man(a1-3)[Gal(b1-4)GlcNAc(b1-3)Gal(b1-4)GlcNAc(b1-3)Gal(b1-4)GlcNAc(b1-3)Gal(b1-4)GlcNAc(b1-3)Gal(b1-4)GlcNAc(b1-2)Man(a1-6)]Man(b1-4)GlcNAc(b1-4)[Fuc(a1-6)]GlcNAc
# Summary of the method: (§1)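 The binding signal is a Z-score computed within each array and averaged over linkers. Arrays of the same protein sequence at different concentrations or buffers were also averaged together. Data originate from 3228 arrays in the Consortium for Functional Glycomics database, kept only where the protein sequence was available.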
# [2] = biological target: Gal(b1-4)GlcNAc(b1-3)Gal(b1-4)GlcNAc(b1-3)Gal(b1-4)GlcNAc(b1-3)Gal(b1-4)GlcNAc(b1-3)Gal(b1-4)GlcNAc(b1-2)[Gal(b1-4)GlcNAc(b1-3)Gal(b1-4)GlcNAc(b1-3)Gal(b1-4)GlcNAc(b1-3)Gal(b1-4)GlcNAc(b1-3)Gal(b1-4)GlcNAc(b1-6)]Man(a1-6)[Gal(b1-4)GlcNAc(b1-3)Gal(b1-4)GlcNAc(b1-3)Gal(b1-4)GlcNAc(b1-3)Gal(b1-4)GlcNAc(b1-3)Gal(b1-4)GlcNAc(b1-2)Man(a1-3)]Man(b1-4)GlcNAc(b1-4)[Fuc(a1-6)]GlcNAc
# Summary of the method: as §1
# [3] = biological target: Gal(b1-4)GlcNAc(b1-3)Gal(b1-4)GlcNAc(b1-3)Gal(b1-4)GlcNAc(b1-3)Gal(b1-4)GlcNAc(b1-3)Gal(b1-4)GlcNAc(b1-3)Gal(b1-4)GlcNAc(b1-2)Man(a1-3)[Gal(b1-4)GlcNAc(b1-3)Gal(b1-4)GlcNAc(b1-3)Gal(b1-4)GlcNAc(b1-3)Gal(b1-4)GlcNAc(b1-3)Gal(b1-4)GlcNAc(b1-3)Gal(b1-4)GlcNAc(b1-2)Man(a1-6)]Man(b1-4)GlcNAc(b1-4)GlcNAc
# Summary of the method: as §1
# [4] = biological target: Gal(b1-4)GlcNAc(b1-3)Gal(b1-4)GlcNAc(b1-3)GalNAc
# Summary of the method: as §1
# [5] = biological target: Gal(b1-4)GlcNAc(b1-3)Gal(b1-4)GlcNAc(b1-3)[Gal(b1-4)GlcNAc(b1-3)Gal(b1-4)GlcNAc(b1-6)]GalNAc
# Summary of the method: as §1
# [6] = biological target: Gal(b1-4)GlcNAc(b1-3)Gal(b1-4)GlcNAc(b1-6)[Gal(b1-3)]GalNAc
# Summary of the method: as §1
# [7] = biological target: Gal(b1-4)GlcNAc(b1-3)Gal(b1-4)[Fuc(a1-3)GlcNAc(b1-6)]Gal(b1-4)Glc
# Summary of the method: as §1
# [8] = biological target: Gal(b1-4)GlcNAc(b1-3)Gal(b1-4)[Fuc(a1-3)]GlcNAc(b1-3)Gal(b1-4)[Fuc(a1-3)]GlcNAc
# Summary of the method: as §1
# [9] = biological target: Gal(b1-4)GlcNAc(b1-3)GalNAc
# Summary of the method: as §1
# [10] = biological target: Gal(b1-4)GlcNAc(b1-3)[Fuc(a1-3)GlcNAc(b1-6)]Gal(b1-4)Glc
# Summary of the method: as §1
# [11] = biological target: Gal(b1-4)GlcNAc(b1-3)[Gal(b1-4)GlcNAc(b1-6)]Gal(b1-4)GlcNAc
# Summary of the method: as §1
# [12] = biological target: Gal(b1-4)GlcNAc(b1-3)[Gal(b1-4)GlcNAc(b1-6)]GalNAc
# Summary of the method: as §1
# [13] = biological target: Gal(b1-4)GlcNAc(b1-3)[GlcNAc(b1-6)]Gal(b1-4)GlcNAc
# Summary of the method: as §1
# [14] = biological target: Gal(b1-4)GlcNAc(b1-6)Gal(b1-4)GlcNAc
# Summary of the method: as §1
# [15] = biological target: Gal(b1-4)GlcNAc(b1-6)GalNAc
# Summary of the method: as §1
# [16] = biological target: Gal(b1-4)GlcNAc(b1-6)[Gal(b1-3)]GalNAc
# Summary of the method: as §1
# [17] = biological target: Gal(b1-4)GlcNAc(b1-6)[Gal(b1-4)GlcNAc(b1-3)]GalNAc
# Summary of the method: as §1
# [18] = biological target: Gal(b1-4)GlcNAc6P
# Summary of the method: as §1
# [19] = biological target: Gal(b1-6)Gal
# Summary of the method: as §1
# [20] = biological target: Gal3S(b1-3)GalNAc
# Summary of the method: as §1
# [21] = biological target: Gal3S(b1-3)GlcNAc
# Summary of the method: as §1
# [22] = biological target: Gal3S(b1-3)[Fuc(a1-4)]GlcNAc
# Summary of the method: as §1
# [23] = biological target: Gal3S(b1-4)Glc
# Summary of the method: as §1
binder,measurement,setting,value
"Gal 1 (Mus musculus), P16045 (protein) MACGLVASNLNLKPGECLKVRGEVASDAKSFVLNLGKDSNNLCLHFNPRFNAHGDANTIVCNTKEDGTWGTEHREPAFPFQPGSITEVCITFDQADLTIKLPDGHEFKFPNRLNMEAINYMAADGDFKIKCVAFE",glycan array binding signal (z-score),[1],2.24
same,glycan array binding signal (z-score),[2],3.46
same,glycan array binding signal (z-score),[3],1.44
same,glycan array binding signal (z-score),[4],0.944
same,glycan array binding signal (z-score),[5],1.04
same,glycan array binding signal (z-score),[6],0.926
same,glycan array binding signal (z-score),[7],-0.189
same,glycan array binding signal (z-score),[8],0.152
same,glycan array binding signal (z-score),[9],-0.123
same,glycan array binding signal (z-score),[10],-0.015
same,glycan array binding signal (z-score),[11],0.453
same,glycan array binding signal (z-score),[12],-0.16
same,glycan array binding signal (z-score),[13],-0.057
same,glycan array binding signal (z-score),[14],-0.27
same,glycan array binding signal (z-score),[15],-0.252
same,glycan array binding signal (z-score),[16],-0.218
same,glycan array binding signal (z-score),[17],-0.011
same,glycan array binding signal (z-score),[18],-0.379
same,glycan array binding signal (z-score),[19],-0.105
same,glycan array binding signal (z-score),[20],0.039
same,glycan array binding signal (z-score),[21],2.76
same,glycan array binding signal (z-score),[22],-0.223
same,glycan array binding signal (z-score),[23],1.43
